Test results taken from the supplement of paper PMC3334620.
Whole data set: some 33,000 sequences, median “E-score (-0.5 to 0.5)” near -0.036, cut for the highest 2% near 0.37. This is one part of the list.

What follows are sequences tested against T1, Yer064c (UniProt P40041) (assay: PBM E-score (8-mer binding enrichment) (E-score (-0.5 to 0.5)); higher = stronger / more preferred TF binding; most listed sequences are background and not binding sites). Details: protein concentration: 200 nM; construct: GST-full length.
T1 sequence: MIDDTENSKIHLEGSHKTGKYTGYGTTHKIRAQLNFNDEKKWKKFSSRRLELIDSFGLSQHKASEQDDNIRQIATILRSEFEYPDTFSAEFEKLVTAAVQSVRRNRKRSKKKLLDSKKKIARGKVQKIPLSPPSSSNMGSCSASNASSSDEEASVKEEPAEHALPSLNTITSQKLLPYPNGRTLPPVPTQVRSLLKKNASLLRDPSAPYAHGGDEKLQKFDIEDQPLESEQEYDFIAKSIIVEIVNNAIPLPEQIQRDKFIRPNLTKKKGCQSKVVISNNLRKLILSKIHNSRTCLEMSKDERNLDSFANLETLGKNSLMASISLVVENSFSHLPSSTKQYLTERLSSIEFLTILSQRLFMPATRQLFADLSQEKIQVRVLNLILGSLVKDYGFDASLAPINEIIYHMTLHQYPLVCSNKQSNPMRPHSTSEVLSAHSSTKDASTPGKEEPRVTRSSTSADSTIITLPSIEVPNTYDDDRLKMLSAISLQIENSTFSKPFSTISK
Experimental: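 Universal 'all 10-mer' protein binding microarrays (Agilent AMADID 015681) probed with GST-tagged S. cerevisiae TFs (full-length or DBD) made by in vitro transcription/translation (PURExpress), about 100-200 nM. Bound TF was detected with fluorescent anti-GST. Each ungapped 8-mer (which stands for itself and its reverse complement) is scored by the PBM enrichment score (E-score), a modified Wilcoxon-Mann-Whitney statistic from -0.5 to +0.5, computed with the Universal PBM Analysis Suite. Scale: above 0.35 generally sequence-specific binding.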

Row | Sequence | PBM E-score
1 | GATGCACA | -0.176
2 | GTTGTCGA | -0.158
3 | ATTTCCCC | -0.274
4 | AGCACATA | 0.0171
5 | ATGATGTA | 0.0484
6 | ATGCTTTC | -0.175
7 | GAACTTGA | 0.0831
8 | ACGGACCG | -0.153
9 | GGTATTTA | -0.0324
10 | AAAAGAAG | 0.0497
11 | CTATAGAA | 0.0616
12 | GATGATCC | 0.118
13 | AGGTGGTG | -0.197
14 | CCGGAGAG | -0.0818
15 | CTAACCGC | 0.0313
16 | ATCGTAGA | 0.0225
17 | CTAACTCC | 0.0875
18 | TTATCGAA | -0.172
19 | CTTACGTA | 0.131
20 | AACGAGAA | 0.0779
21 | AACGAAAA | 0.0213
22 | TAGTCGGA | 0.288
23 | ACCCGAGT | 0.0782
24 | ACTAACCG | 0.163
25 | ATAAGAAA | -0.00846

Row | Sequence | PBM E-score
26 | AACTTTCC | -0.196
27 | TACCTACA | -0.0717
28 | AAACGGCT | -0.25
29 | AAGTGAAG | -0.0561
30 | ATGGAGTG | -0.143
31 | ACTATCAT | 0.172
32 | AGTTCACA | 0.0835
33 | AGGTTAGA | 0.00887
34 | TCAATCAA | 0.281
35 | ACCGCAAC | -0.0492
36 | CGTATATC | -0.199
37 | ATCCCCCC | -0.274
38 | CTCAGGCC | -0.12
39 | CGTGCCTA | -0.311
40 | AGTACTCG | 0.261
41 | ACTCCGCT | 0.0247
42 | CTTTTCCA | -0.0828
43 | CGCCAGGC | -0.0942
44 | GACTCCCA | 0.381
45 | GCGTTATA | -0.0598
46 | AGCTCTAG | -0.103
47 | GAATCAAC | 0.358
48 | CATGGGTC | 0.0941
49 | GGGTCGTA | -0.191
50 | GACACGAA | -0.156

Row | Sequence | PBM E-score
51 | CACATCAA | 0.128
52 | TACGTGCA | -0.0319
53 | AGAAGGAT | -0.0779
54 | ACCCCATA | -0.00545
55 | CCTTGAAG | -0.0782
56 | ACAGTCCC | 0.0079
57 | TAGGGGAA | -0.172
58 | GCATGCAC | -0.0257
59 | CCGAATCA | 0.348
60 | GCCATTAA | 0.0294
61 | ACGCCAGC | -0.222
62 | CTCAATCC | 0.146
63 | GGCGACTA | 0.402
64 | TAGCCTCA | 0.0105
65 | CTCCCCTA | 0.0602
66 | ATTTTACA | -0.00986
67 | CGCCGCAG | -0.2
68 | CGCTTGCA | -0.132
69 | CAACGGAC | 0.00462
70 | ATGGGCCC | -0.231
71 | AGGGCGTC | -0.364
72 | CTTCGTGC | -0.00244
73 | TCCCGACA | 0.0419
74 | GTCCTCTA | -0.0702
75 | AAAGAATA | 0.0434

Row | Sequence | PBM E-score
76 | AATAAGAA | 0.0151
77 | AGACTTCA | 0.13
78 | AATTGGTA | -0.0745
79 | CGATTCAG | 0.257
80 | GCTGTCTA | -0.128
81 | CCATTAGC | -0.0335
82 | AAGAGTCT | 0.355
83 | CAAGGTCG | -0.167
84 | CGGGCCTC | -0.321
85 | CACTGAAG | -0.0332
86 | CGAGTTAA | 0.112
87 | AAAACACC | -0.0208
88 | ACGTAGCG | -0.331
89 | CTTCAGCC | -0.0159
90 | ACGACAAA | 0.0154
91 | AGCAGGCA | -0.0692
92 | TACCACAA | 0.126
93 | AGTCGATC | 0.109
94 | TCCTAACA | 0.00757
95 | CGGCGGGC | -0.0702
96 | ACGCTGGG | -0.301
97 | GGTAGTTA | -0.0766
98 | GTGATTCA | 0.474
99 | CGTAATTA | -0.00543
100 | GGAGTCGA | 0.212

Row | Sequence | PBM E-score
101 | CGTACGAC | 0.041
102 | CAGATCAC | -0.0955
103 | CGATGGAG | -0.0738
104 | ACTGGGAT | 0.0594
105 | ACATATAC | 0.0229
106 | AGGCAAGG | -0.0548
107 | CGGCAGGC | -0.052
108 | ATGGACGG | -0.109
109 | CACCGTGG | -0.199
110 | CAGTCCGC | 0.16
111 | GGCTGCGA | 0.0456
112 | AGCTAAAG | 0.0851
113 | CATCAAAG | 0.0258
114 | ACTACGTG | 0.156
115 | AAACTATA | 0.09
116 | AAACCTTA | 0.0874
117 | ACGACGCC | -0.211
118 | ATGCGAGA | 0.00686
119 | CCGCTGCC | -0.118
120 | CAAATACC | -0.0305
121 | CGCGTCAA | -0.105
122 | ATCGTGAG | 0.124
123 | AGCCAAAC | -0.075
124 | CGAATCTC | -0.0267
125 | ATACTAAA | 0.163

Row | Sequence | PBM E-score
126 | CAATCGGG | -0.0625
127 | CTGCGTCC | -0.0559
128 | GGCTTTAA | 0.0622
129 | GAGATCTC | -0.163
130 | ATCCTGTA | 0.0133
131 | AGCAAATG | -0.0298
132 | TAGAGACA | 0.06
133 | GGCATTAC | -0.223
134 | AGATGAGC | 0.0974
135 | TATGTAGA | 0.0301
136 | CATGCAAG | -0.0496
137 | CCGAGCTA | -0.155
138 | CACGAGGA | -0.014
139 | ATGGTGGC | -0.122
140 | ATATTTAC | 0.0883
141 | AAAAGTGA | 0.192
142 | GGAACGGA | -0.254
143 | CGCCTACA | -0.203
144 | AGTAACAA | 0.13
145 | GCACGCAA | -0.354
146 | CGCCTAGC | -0.36
147 | GGAATATA | 0.103
148 | CTACAGAG | -0.00669
149 | CACCGTGC | -0.0357
150 | CCCGGACC | -0.189

Row | Sequence | PBM E-score
151 | CCGCGGAA | -0.139
152 | AGCACCAC | -0.223
153 | CTACGAAA | -0.119
154 | CATAAAGA | 0.0843
155 | AATACCGT | -0.0314
156 | CTCTGACA | -0.0688
157 | GCCGTGCC | -0.24
158 | TCAGTACA | 0.0887
159 | AACTGCAA | -0.0944
160 | ATGTTCCC | -0.106
161 | ACCCCTAG | -0.115
162 | ACGTATAA | -0.0181
163 | ATTCCAGC | -0.115
164 | CCCCGTCA | -0.156
165 | GGTGAGAC | 0.226
166 | GAATTTGC | -0.133
167 | CGGATGCA | -0.221
168 | AGTCTTCC | 0.432
169 | AGGAAAGC | -0.307
170 | ACTAAAGT | 0.187
171 | CGACAATC | 0.0476
172 | CTTGAAGC | -0.0843
